Some of the results follow.

This assay deals with T1, OsWOX13 (Oryza sativa, UniProt Q5QMM3 1-267).
T1 sequence: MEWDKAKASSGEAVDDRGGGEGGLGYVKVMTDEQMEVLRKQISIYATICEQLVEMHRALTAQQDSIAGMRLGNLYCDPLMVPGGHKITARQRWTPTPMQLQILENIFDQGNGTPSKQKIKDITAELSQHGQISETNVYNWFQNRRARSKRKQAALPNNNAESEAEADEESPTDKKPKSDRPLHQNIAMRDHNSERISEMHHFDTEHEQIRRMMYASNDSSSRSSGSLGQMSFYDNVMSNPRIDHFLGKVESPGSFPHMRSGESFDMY
In words: protein-binding microarray (RPBM); PBS, 2% BSA, 51.3 ng/ul salmon testes DNA, 50 uM zinc acetate, 200 nM TF, 25 C, 1 h; high values mean tight binding. The settings on record: protein: recombinant; tags: N-terminal polyhistidine and DsRed monomer fusion (pET32a); label: CyDye5-dUTP incorporated in the synthesized complementary strand; 3' TTTTT single-stranded linker to array surface; dsDNA, one strand shown. An outline of the steps: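 In PBS with 2% BSA, salmon testes DNA and 50 µM zinc acetate, 200 nM protein was incubated on a custom Agilent array at 25 °C for 1 h and then washed off. The array had been made double-stranded by primer extension with Cy5-dUTP and blocked with 2% BSA. The proteins were transcription factors fused N-terminally to polyhistidine and DsRed, expressed in E. coli BL21-CodonPlus and purified on Ni–NTA. The binding signal is per-feature fluorescence intensity (arbitrary units) from an Axon 4000B scanner.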
As for “CTGATGTGATTACGTCTATCCAGTATAATCCCTCTGGTTTCGGAGTCACCTAGTGCAG”, the binding signal was 31700 fluorescence intensity (a.u.).

For “TGTGATTTTCAATAAATTGACTCGCGTTTTCAACGGTTCCCGGAGTCACCTAGTGCAG”, the binding signal was 33200 fluorescence intensity (a.u.).

Regarding “GCTTGATGAGTGCTAAGGCGCTGCCTTCACAAATCATACCCGGAGTCACCTAGTGCAG”, the binding signal was 6190 fluorescence intensity (a.u.).

For the sequence “AAGAAAACCTAATTGTTACTACCATTTACCAAACCTACCACGGAGTCACCTAGTGCAG”, the binding signal was 3910 fluorescence intensity (a.u.).

Turning to “AAAAGAATCGAGAAATTGATGAGATCGCATAAGCAAGCAACGGAGTCACCTAGTGCAG”, the binding signal is 3430 fluorescence intensity (a.u.).

“ATACTAATTATACGGTCACACCTATCCGTTGCATGATGCACGGAGTCACCTAGTGCAG”: the binding signal was 21100 fluorescence intensity (a.u.).

Consider “ATGATTTATATTCTCAAGGTTTGACTTAAACATTATCCTACGGAGTCACCTAGTGCAG”, for which the binding signal was 10600 fluorescence intensity (a.u.).

For the sequence “AATTTAATCAAGTGAAATAATGGGAGAATTAAAATTTTCCCGGAGTCACCTAGTGCAG”, the binding signal was 4270 fluorescence intensity (a.u.).

As for “CTTAATTATTATGCTTGGTGTCTGCATTGTAACTGTATCTCGGAGTCACCTAGTGCAG”, the binding signal was 33300 fluorescence intensity (a.u.).

On to “TGTAAATGTATAAGATATAAATTACACTTAAAGTACTATGCGGAGTCACCTAGTGCAG”, for which the binding signal is 4980 fluorescence intensity (a.u.).

For the sequence “TCTCCATCAAGGTAGCTAATTTCCCTTTCACACCACCCAACGGAGTCACCTAGTGCAG”, the binding signal is 5210 fluorescence intensity (a.u.).

With “GGATAGAATTGATTGAGCGAGAGAGAGAATTGAACACAAACGGAGTCACCTAGTGCAG”, the binding signal was 21200 fluorescence intensity (a.u.).

For the sequence “CTAGCCATTTATGGCCTGTGATTAATACAGTGTGTGGCCGCGGAGTCACCTAGTGCAG”, the binding signal is 3320 fluorescence intensity (a.u.).

In the case of “ACTAAAATTACATATGTAATTTAGGGACTTACAATGTAAACGGAGTCACCTAGTGCAG”, the binding signal is 18300 fluorescence intensity (a.u.).

Consider “TCTTAAATTGGCTATAGATGAATTGGAGGACTATGCTATTCGGAGTCACCTAGTGCAG”, for which the binding signal was 29700 fluorescence intensity (a.u.).

Turning to “CCAGATTGATGGCTATCATCAGGCCATGCTGTTCTCGTCTCGGAGTCACCTAGTGCAG”, the binding signal is 59800 fluorescence intensity (a.u.).

In the case of “CCATAGAGTGAATTGACCCTTGATTTCCATAACAGCAAGACGGAGTCACCTAGTGCAG”, the binding signal is 7040 fluorescence intensity (a.u.).

Consider “AATATTAATTAATTATTACAACTGTTTAAATCTTTCAATTCGGAGTCACCTAGTGCAG”, for which the binding signal is 34000 fluorescence intensity (a.u.).

In the case of “ATTTTATAATTTGTAAGGAGACTGTGGTTTCTAGTGGGTTCGGAGTCACCTAGTGCAG”, the binding signal was 12000 fluorescence intensity (a.u.).

As for “ACTACGTTGATTTGGTAAAGGCGCACCTTTCTGCTGGTAACGGAGTCACCTAGTGCAG”, the binding signal was 8030 fluorescence intensity (a.u.).

“GTTATTAAATTATTTTACACACGCAGGTTCTGGTAACTGGCGGAGTCACCTAGTGCAG”: the binding signal was 12200 fluorescence intensity (a.u.).

On to “GACATAATTGAAAATTCGTTACAAGTTTAAGAACCGCTAGCGGAGTCACCTAGTGCAG”, for which the binding signal is 23100 fluorescence intensity (a.u.).

Consider “ATGTATTTGCTATTAAATTAATTATAGATGATTTAGAGCTCGGAGTCACCTAGTGCAG”, for which the binding signal was 16300 fluorescence intensity (a.u.).

Take “CTCCAATTAGAACAGGATTGCATACATCTTAACAGCAAAGCGGAGTCACCTAGTGCAG”: the binding signal is 8020 fluorescence intensity (a.u.).

For “AAAACTGGATAGTTATGATTGTAATGGCAAGAAAGTTTTGCGGAGTCACCTAGTGCAG”, the binding signal is 12700 fluorescence intensity (a.u.).

With “GGATTGATGAATCATTTCTTTCTCAGTGGTTGCTTATTTCCGGAGTCACCTAGTGCAG”, the binding signal was 11200 fluorescence intensity (a.u.).

For “ATAAATTAATATGCGATATAATACTCCACAGCAAGTTAAACGGAGTCACCTAGTGCAG”, the binding signal was 5020 fluorescence intensity (a.u.).

As to “ATGTGCTAATTATTGATTTAGCCATGCGCCATCCGCGTATCGGAGTCACCTAGTGCAG”, the binding signal is 32100 fluorescence intensity (a.u.).

As to “ATATTGATTTGTAACATCACAGACACACATGATCTTTAGCCGGAGTCACCTAGTGCAG”, the binding signal is 27900 fluorescence intensity (a.u.).

Turning to “AAAATAAATTAAAATAACACAAAGCGCTAAAATGATGGGCCGGAGTCACCTAGTGCAG”, the binding signal was 14800 fluorescence intensity (a.u.).

As to “AGTTAATAATTTGTGATATTGTGTTGTATGTGCCTAGCTACGGAGTCACCTAGTGCAG”, the binding signal was 18800 fluorescence intensity (a.u.).

For “AATATAATAAATTTGACGTTAATATTTTAACTCTAGGTGTCGGAGTCACCTAGTGCAG”, the binding signal was 13800 fluorescence intensity (a.u.).

For the sequence “ATATTTATAATTAGTGTCCAAACATCCGATGTGACAGGGACGGAGTCACCTAGTGCAG”, the binding signal is 9610 fluorescence intensity (a.u.).

In the case of “AAACTTAAATTTATTTGGTATTAACACATGCAATGAGGGACGGAGTCACCTAGTGCAG”, the binding signal was 6470 fluorescence intensity (a.u.).

As to “TTTCATAATATGTGGGTAATTTGTTGCAACAACGCATGTGCGGAGTCACCTAGTGCAG”, the binding signal is 4660 fluorescence intensity (a.u.).

As for “AAATAACTGAGTAGATTATCGGCTTTGGATGTAATGAATTCGGAGTCACCTAGTGCAG”, the binding signal was 6590 fluorescence intensity (a.u.).

“AGTTGATAGATGTGTTCAATGTGTTCAATTAAACTGTATCCGGAGTCACCTAGTGCAG”: the binding signal was 25600 fluorescence intensity (a.u.).

“ATGTGTCAATTAATTATTTGCCACTCGCTGTCTATGACATCGGAGTCACCTAGTGCAG”: the binding signal was 28300 fluorescence intensity (a.u.).

For the sequence “ACTGATAGAATTAGCTCTATGCATAATGCATGGCTGTCTCCGGAGTCACCTAGTGCAG”, the binding signal is 34300 fluorescence intensity (a.u.).

For the sequence “ACTAGATTGCCGTTTAGTTTGCTACTATGTATTGCGTTAGCGGAGTCACCTAGTGCAG”, the binding signal was 28600 fluorescence intensity (a.u.).

For “ATTCATAATAATCTAGATTATAATAATTCTAAGCTGAATCCGGAGTCACCTAGTGCAG”, the binding signal is 11000 fluorescence intensity (a.u.).

As to “CTAGATTGAGAGCATCTGATTCAATAATTAGACTTTCAATCGGAGTCACCTAGTGCAG”, the binding signal is 45100 fluorescence intensity (a.u.).

These data come from article PMC7819943, “Rice protein-binding microarrays: a tool to detect cis-acting elements near promoter regions in rice”.
